Test results published in the RNAGym collection of RNA variant scans (doi:10.7554/elife.90254).
The source gives no read counts; variants with many changes may rest on few reads.

B1: LINE1-mini (parent)
chain: GGCAGAGCUCAACACAGCGUGGCAAAGUGGCUGUGGCUAGACUGCC

Variants of: B1
Assay: self-cleavage, relative activity (ratio to wild type); higher = more cleavage; in vitro, sequencing; the parent is a self-cleaving ribozyme
For GGCAGAGCUCAACACUGCGUGGCAAAGUGGCUGUGGCUCUACUGCC [A16U A39C G40U], the self-cleavage was 0.02.
Work on GGCAGAGCUCAACACAGCGCCGCAAAGUGGCUGUGGCUAGACUGUC [U20C G21C C45U] yielded a self-cleavage of 0.64.
For GGCAGAGCUCAACACAGCGAGGCAAAGUGGCUGUGGCUAUUCUGCC [U20A G40U A41U], the self-cleavage was 0.1.
Variant GGCAGAGCUGAACACAACGUGGCAAAGUGGGUGGGGCUAGACUGCC [C10G G17A C31G U34G] has a self-cleavage of 0.01.
With GGCAGAGCUCAACACAGCGUGACAGAGUGGCUGCGGCUAGACUGCC [G22A A25G U34C] the self-cleavage was 0.81.
With GUCAGCGCUCAACACAGCGUGGCAAAGGGGCUGUGGCUAGACUGCC [G2U A6C U28G] the self-cleavage was 0.02.
In the case of GGCAGAGCUGAACACAGCGUGGCAAAGUGGCAGUGGCAAUUCUGCC [C10G U32A U38A G40U A41U], the self-cleavage is reported as 0.
Variant GGCAGAGCUCAACACAUCGUGGCAAAGUGGCUGUGGUUGGACUGCC [G17U C37U A39G] has a self-cleavage of 0.07.
Work on GGCAGAUAUCAACACAGCGUGGCAAAGUGGCUGUCGCUAGACUGCC [G7U C8A G35C] yielded a self-cleavage of 0.52.
Variant GGCAGACCUCAACACAGGGUGGCAGAGUGGCUGUGGCAAGACUGCC [G7C C18G A25G U38A] has a self-cleavage of 0.02.
In the case of GUCAGAGCUCAACACAGCGUGGCAAAGUCGCUGUGGAUAGACUGCC [G2U G29C C37A], the self-cleavage is reported as 0.
Work on GGGAGAGCUCAACACAGCCUGGCAAAGUGGCUGUAGUAAGACUGCC [C3G G19C G35A C37U U38A] yielded a self-cleavage of 0.02.
GUCAGAGCUCAACAGAGCGUGGCAAACUGGCUGUGGCUAGACUGCC [G2U C15G G27C] showed a self-cleavage of 0.02.
GGCAGAGCUCAACACAGCUUGGCAAAGUGGCUUUGGCUACACUGCC [G19U G33U G40C] showed a self-cleavage of 0.04.
Variant GGUCGAGCUCAGCACAGCGUGGCAAAGUGGAUUUAGCUAGACUGCC [C3U A4C A12G C31A G33U G35A] has a self-cleavage of 0.05.
In the case of GGCAUAGCUCAACACAGCGUGGAAAAGUGGCUGUGGCUAGACUGCU [G5U C23A C46U], the self-cleavage is reported as 0.11.
With GGCAGCGCUCAACACAGCGUGGCAAAGUGGCUGUGGCCAGACUGCU [A6C U38C C46U] the self-cleavage was 0.2.
For GGCAGAGCUCAACACAGCGGGGCAAAGUGGCUGUGGCUAGACUAAU [U20G G44A C45A C46U], the self-cleavage was 0.02.
For GGCAGAGCUCAACACAGCGUGGUAAAAUGGCUAUGGCUAGACGGCC [C23U G27A G33A U43G], the self-cleavage was 0.
GGCAGAGCUCAACACAGCGUGUCAAAGUGGCUGUGGAUAGACUGUC [G22U C37A C45U] showed a self-cleavage of 0.02.
With GGCGGAGCCCAACACAGCGUGGCAAAGUGGCUGUGGCUACACUGCC [A4G U9C G40C] the self-cleavage was 0.03.
With GGCGGAGCUCAACACAGCGUGGCAAAGUAUCUGUGGAUAGGCGGCC [A4G G29A G30U C37A A41G U43G] the self-cleavage was 0.
In the case of AGCAGAGCUCAACACAGCGUGGCAAAGUGGCUGUGUCUAGGCUGCC [G1A G36U A41G], the self-cleavage is reported as 0.16.
GGCAGAGCUUAACACAGCGCGGCAAAGUUGCUGUGGCUAGACUGCG [C10U U20C G29U C46G] showed a self-cleavage of 0.63.
Work on GGCAGAGCUCAACACAUCGUUGCAAAGUGGCUGUGGCUAGACUGAC [G17U G21U C45A] yielded a self-cleavage of 0.06.
Work on GGCAGAGCUCAACACAGCGUUGCAAAGUGACUGUGGCUAGACUGCA [G21U G30A C46A] yielded a self-cleavage of 0.42.
With CGCAGAGCUCAACACAGUGCGGCAAAGUGUCUGUGGCUAGACUUCC [G1C C18U U20C G30U G44U] the self-cleavage was 0.01.
For GGCAGAGCUAGACACAGCGUGGCAAAGUGGCUGUGGCUAGAAUGCC [C10A A11G C42A], the self-cleavage was 0.
Variant GGCAGAGCUCAACACACCGUGGCAAAGUGGAUGUUGCUAGACUGCC [G17C C31A G35U] has a self-cleavage of 0.06.
GGCAGAGCUCAACACAGCGUGGGAAAGUGGCUGUGGCUACACAGCA [C23G G40C U43A C46A] gave a self-cleavage of 0.09.
Variant GGCAGAGCUCACCACAGCGUGGCAAAGUGGAUGUGGCUAUACUGCC [A12C C31A G40U] has a self-cleavage of 0.01.
For GGCAGAGGUAAACACAGCGUGACAAAGUGGCUGUGGCCAGACUGGC [C8G C10A G22A U38C C45G], the self-cleavage was 0.
Variant GGCAGAGCUCAACGCAUCGUGGCAAAGUGGCUGUGGCUAGACACCC [A14G G17U U43A G44C] has a self-cleavage of 0.07.
UGCAGGGAUCAACACAGCGUGGCAAAGUGGCUGUGGCUAGACUGCC [G1U A6G C8A] showed a self-cleavage of 0.09.
For GGGAGAGCUCAACACAACGUGGCAACGUGGCUCUGGCUAGACUGCC [C3G G17A A26C G33C], the self-cleavage was 0.07.
Variant GGUAGAGUUCAACACAGUGUGGCAAAAUGGCUGUGGCAAGAAUGCC [C3U C8U C18U G27A U38A C42A] has a self-cleavage of 0.07.
Work on GGCAGAGCUCAACACAGCGUGGCAAAGUGGAUGCGGCCAGACUGCC [C31A U34C U38C] yielded a self-cleavage of 0.03.
Variant GCCAGAGCUCAACACAGAGUGGCAAAGCGGCUUCGGCUAGAGUGCU [G2C C18A U28C G33U U34C C42G C46U] has a self-cleavage of 0.02.
Work on GGCAGAGCUCAACAUAGUGUGGCAAAGUGGCUGUGGCUAUACUGCC [C15U C18U G40U] yielded a self-cleavage of 0.07.
GGGAGAGCUCAACGCAGCGUGGAAAAGUGGCUGUGGCUAGACUGCC [C3G A14G C23A] gave a self-cleavage of 0.26.
With GGCAGAGCUCAACACAGCGUGGCAAUGUGGCUGUAGUUAGACUGCC [A26U G35A C37U] the self-cleavage was 0.
With CGCAGAGCUCAACACAGCCAGACAAAGUAGCUGUGGCUCGACUGCC [G1C G19C U20A G22A G29A A39C] the self-cleavage was 0.04.
GGCAGAGCUCAACACAGCGUGGCAAACUGCCUGUGGCCAGACUGCC [G27C G30C U38C] showed a self-cleavage of 1.23.
With GGCAGAGAUCAACACAGCGUGGCAAAGUGGCUGUGGCUGGAAUGCC [C8A A39G C42A] the self-cleavage was 0.56.
With UGCAGAGCUCAACACAGCGUGGCAAAGUGGCUAUGCCUAGACUGCC [G1U G33A G36C] the self-cleavage was 0.02.
In the case of GGCAGGGCUCAACACAGCGUGGCAAAGUCGCUGUGGGUAGACUGCC [A6G G29C C37G], the self-cleavage is reported as 0.01.
Work on GGCAGAGCUCAACUCAGCUUGGCAAAGUGGCCGUGGCUGGACUGCC [A14U G19U U32C A39G] yielded a self-cleavage of 0.09.
GGCAGAGCUCAACACAGCGUGUCAACCUGGCUGUGGCUAUACUGCC [G22U A26C G27C G40U] showed a self-cleavage of 0.32.
With GGCAAAGCUCAACACAACGUGGCACAGUGGCUGUGGCUAGUUUGCC [G5A G17A A25C A41U C42U] the self-cleavage was 0.05.
GGCAGAGCUCAACACAGCGUGGCCAAGUGGCUGUGGCUAGACAGCG [A24C U43A C46G] gave a self-cleavage of 0.01.
For GGCAGAGCUGUACACAGCGUGGAAAAGUGCCUGUGGCUAGACUGCC [C10G A11U C23A G30C], the self-cleavage was 0.03.
Work on GGUAGAGCUUAACACAGCGUGGCAAAGUGGCUUUGGCUAGACUGCC [C3U C10U G33U] yielded a self-cleavage of 0.05.
With GGCAGAUCUCAGCACAGCAUGGCAAAGUGGAUGUGGCUAGACUGCC [G7U A12G G19A C31A] the self-cleavage was 0.12.
Work on GGCAGAGCUCAGCACAACGUGGCAAAGUGACUGUGGCUAGAUUGGC [A12G G17A G30A C42U C45G] yielded a self-cleavage of 0.02.
GGCAGAGCCCAACACAGCGUGGCAAAGUGGCUGUGAAUAGACUGCC [U9C G36A C37A] gave a self-cleavage of 0.09.
GGCAGAUCUGAGCAGAGCGUGGCAAAGUGGCUGUGGCUAGACUGCC [G7U C10G A12G C15G] showed a self-cleavage of 0.
